From article PMC4336329 (PLoS ONE, 2015)
Out of some 310,000 compounds screened, about 14,000 (4.5%) showed an effect of 50% or more. The effect is printed as a negative number. The list shows a part of the results.

molecular target: human ether-à-go-go-related gene (hERG) potassium channel (human, UniProt Q12809); experiment: primary screen, population patch clamp on CHO cells stably expressing hERG
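Further: peak tail current of the secondary pulse compared with the same well before compound.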

human ether-à-go-go-related gene (hERG) potassium channel, sequence (Q12809 whole entry, looked up): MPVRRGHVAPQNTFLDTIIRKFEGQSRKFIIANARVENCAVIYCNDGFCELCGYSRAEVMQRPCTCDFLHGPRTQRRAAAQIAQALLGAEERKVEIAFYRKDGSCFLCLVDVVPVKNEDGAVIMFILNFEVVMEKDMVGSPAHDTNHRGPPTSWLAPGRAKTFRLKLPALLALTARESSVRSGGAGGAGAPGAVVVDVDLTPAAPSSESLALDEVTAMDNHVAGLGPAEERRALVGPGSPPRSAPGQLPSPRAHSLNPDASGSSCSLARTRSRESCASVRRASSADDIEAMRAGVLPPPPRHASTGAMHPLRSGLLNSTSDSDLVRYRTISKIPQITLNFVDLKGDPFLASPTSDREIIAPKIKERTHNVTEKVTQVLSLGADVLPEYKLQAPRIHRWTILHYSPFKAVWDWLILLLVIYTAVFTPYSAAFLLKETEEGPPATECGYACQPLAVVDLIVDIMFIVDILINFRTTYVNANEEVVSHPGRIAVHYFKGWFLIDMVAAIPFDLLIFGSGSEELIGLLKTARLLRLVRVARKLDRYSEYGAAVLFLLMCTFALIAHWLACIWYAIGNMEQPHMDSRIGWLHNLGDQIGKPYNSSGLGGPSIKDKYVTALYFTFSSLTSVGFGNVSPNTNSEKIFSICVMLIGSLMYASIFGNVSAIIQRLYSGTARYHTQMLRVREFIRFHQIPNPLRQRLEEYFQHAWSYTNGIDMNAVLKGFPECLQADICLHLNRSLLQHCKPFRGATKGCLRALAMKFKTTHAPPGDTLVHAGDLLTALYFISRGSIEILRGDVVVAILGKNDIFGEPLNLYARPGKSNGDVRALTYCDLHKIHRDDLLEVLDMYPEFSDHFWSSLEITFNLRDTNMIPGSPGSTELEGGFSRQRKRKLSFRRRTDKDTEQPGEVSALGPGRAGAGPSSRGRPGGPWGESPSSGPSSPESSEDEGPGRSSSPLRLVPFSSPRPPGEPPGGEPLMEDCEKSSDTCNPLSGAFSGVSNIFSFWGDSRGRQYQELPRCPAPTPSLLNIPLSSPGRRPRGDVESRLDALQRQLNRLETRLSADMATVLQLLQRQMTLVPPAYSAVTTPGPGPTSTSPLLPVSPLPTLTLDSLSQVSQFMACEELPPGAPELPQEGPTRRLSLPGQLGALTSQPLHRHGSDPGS

Row | Compound | hERG current change (%, negative = inhibition) at 10uM [%]
1 | CN(C)C(/C=C/Nc1ccc([N+](=O)[O-])cc1)=C(C#N)C#N | -33
2 | COC(=O)C1=C(c2cc3ccccc3o2)C[C@@H]2CC[C@H]1N2C(=O)NC1CCCCC1 | -20
3 | COc1ccccc1C(=O)NCCC(=O)NCC(C)(C)N1CCOCC1 | 16.6
4 | O=C(N/N=C/c1c[nH]c2ccc(Br)cc12)C1CC1 | 4.6
5 | COC(=O)c1ccc(CSc2nnc(NC(=O)C3CC(=O)N(Cc4ccc(C)cc4)C3)s2)cc1 (stereo not drawn) | 8.78
6 | CCOC(=O)c1ccc(NC(=O)CSc2nncn2-c2cccnc2)cc1 | 6.93
7 | O=C(c1cc2ccccc2[nH]1)N(Cc1cccnc1)CC1CCCN(C2CCCCC2)C1 (stereo not drawn) | -73.7
8 | CCOC(=O)C(/C=C(\C#N)C(=O)OCC)=C(/N)N1CCN(c2c(C)cccc2C)CC1 | 10.5
9 | O=C(Nc1cccc(O)c1)c1ccc(C(F)(F)F)cc1 | 11.5
10 | CCOC(=O)Cc1csc(NC(=O)CCCCCN2C(=O)c3cccc4cccc(c34)C2=O)n1 | 7.04
11 | COc1ccc(N(CCOc2ccccc2)S(=O)(=O)c2ccccc2)cc1 | -4.39
12 | Cn1c(=NC(=O)C(C)(C)C)sc2cccc(F)c21 | 4.8
13 | COc1ccccc1NC(=O)c1ccccc1NS(=O)(=O)c1cccs1 | 10.8
14 | CCn1cc(CN2CCC(n3nccc3NC(=O)c3ccc4c(c3)OCO4)CC2)c(C)n1 | 7.01
15 | Cc1cccnc1NC(=O)CCCNC(=O)c1ccc(Cl)cc1 | -10.3
16 | COc1ccc(CCC(=O)NC2CCCCC2)cc1 | -29.9
17 | CN(C)S(=O)(=O)c1ccc(NC(=O)CN2CCN(C(c3ccccc3)c3ccccc3)CC2)cc1 | 12
18 | Cc1ccccc1NS(=O)(=O)c1ccc(C(=O)N2CCN(c3ccccn3)CC2)cc1 | -19.7
19 | COc1ccc(/C=C/C(=O)c2ccc(NC3=NCCCS3)cc2)cc1OC | -37.7
20 | COc1ccc(S(=O)(=O)NNc2nc(C)cc(C)n2)cc1Br | 2.02
21 | Cl.O=[N+]([O-])c1cc(Cl)cc(C2=NCCN2)c1 | -18.8
22 | c1csc(-c2ncc3ccccn23)c1 | -2.73

Row | Compound | hERG current change (%, negative = inhibition) at 10uM [%]
23 | O=C(Nc1ccnn1C1CCN(Cc2cc(Cl)ccc2O)CC1)c1cccnc1 | -9.31
24 | O=C(CSc1nnc(NC(=O)c2c(F)cccc2Cl)s1)Nc1ccccc1F | 6.5
25 | Cc1c(Cl)cccc1NC(=O)CCN1CCN(C)CC1 | 2.09
26 | COc1ccc(Cl)cc1NS(=O)(=O)c1c(C)nc2sccn2c1=O | -0.862
27 | CN(c1ccccc1C(=O)N1CCc2ccccc2C1)S(C)(=O)=O | -7.88
28 | CS(=O)(=O)NN1C(=O)c2ccccc2NC12CCCC2 | 10.2
29 | Cc1ccc(CNC(=O)C2CC(c3cccc([N+](=O)[O-])c3)=NO2)o1 (stereo not drawn) | -16.3
30 | NNC(=O)c1oc2nc(-c3ccccc3)cc(-c3ccccc3)c2c1N | 17.8
31 | CC(C)CN1CCN(Cc2ccc(F)cc2Cl)CC1CCO (stereo not drawn) | -34.4
32 | CCOC(=O)C(CC)Sc1nc2c(c(=O)[nH]c(=O)n2C)n1C/C=C(/C)Cl (stereo not drawn) | -82
33 | CCc1ccc(C(=O)C(C)OC(=O)Cn2[nH]c(=O)c3ccccc3c2=O)cc1 (stereo not drawn) | 10.8
34 | O=C(COC(=O)c1cc(S(=O)(=O)N2CCOCC2)c(Cl)cc1Cl)c1ccc[nH]1 | 11.5
35 | COc1cc(Cl)ccc1NC(=S)N(CCN(C)C)C(C)c1ccncc1 (stereo not drawn) | -39.2
36 | CCN(CC)CCN1C(=O)C2C(C(=O)Nc3cccc(C)c3)C3C=CC2(O3)C1C(=O)NC1CCCC(C)C1C (stereo not drawn) | -21.6
37 | Cc1cccc(OCC(O)CN2CCN(C3CCCCC3)CC2)c1.Cl (stereo not drawn) | -50.3
38 | COc1ccnc(Oc2ccc(F)cc2)c1-c1ncn[nH]1 | 24.3
39 | NC(=O)CN1CCOCCN(CC(N)=O)CCOCC1 | 18.1
40 | CCOc1ccc(N=Cc2c(O)n(-c3ccc(C)c(C)c3)c(=O)[nH]c2=O)cc1 | -1.8
41 | Cc1ccc(C)c(N(CC(=O)NCc2ccco2)C(=O)CCC(=O)Nc2nccs2)c1 | 1.35
42 | NC[C@@H]1O[C@H](O[C@H]2[C@@H](O)[C@H](O[C@@H]3[C@@H](O)[C@H](N)C[C@H](N)[C@H]3O[C@H]3O[C@H](CO)[C@@H](O)[C@H](O)[C@H]3N)O[C@@H]2CO)[C@H](N)[C@@H](O)[C@@H]1O.O=S(=O)(O)O | 22.9
43 | COC(=O)NNC(=O)c1ccc(C(C)(C)C)cc1 | 19.4
44 | O=C(NNC(=O)c1ccccc1Br)c1ccccc1Cl | 17.8

Row | Compound | hERG current change (%, negative = inhibition) at 10uM [%]
45 | COc1ccccc1NC(=O)Nc1ccnn1C1CCCCC1 | -12.7
46 | CCC(=O)c1ccc(OCC(O)CNC2CCCC2)cc1 (stereo not drawn) | 2.52
47 | COc1cc(C(=O)N2CCN(C(=O)C3CC3)CC2)cc(OC)c1OC | 3.78
48 | Cc1ccc2cc(C(c3nnnn3C(C)(C)C)N3CCCCCC3)c(=O)[nH]c2c1 (stereo not drawn) | -7.34
49 | CCOc1ccc2c(C)nc(NC3=NC(C)(C)C=C(C)N3)nc2c1 | -45
50 | O=C(CN1C(=O)C2C3C=CC(C3)C2C1=O)NCCN1CCCc2ccccc21 (stereo not drawn) | -2.92
51 | CC(C#N)CCC#N (stereo not drawn) | 21.7
52 | CCOC(=O)Cc1csc(NC(NC(=O)OCC)(C(=O)OCC)C(F)(F)F)n1 (stereo not drawn) | 0.51
53 | CC(=O)Nc1ccc(S(=O)(=O)N(C)CC(=O)OCC(=O)N2CCCCC2)cc1 | -1.43
54 | CCn1c(CC(=O)Nc2ccccc2)n[nH]c1=S | 25.4
55 | COc1ccc(C(=O)COc2ccc(C)cc2NC(C)=O)cc1 | 7.08
56 | Cc1ccc(-c2nnn(CC(=O)Nc3ccccc3N3CCOCC3)n2)cc1 | 3.14
57 | CCCCn1c(=O)c(-[n+]2ccccc2)c([O-])c2ccccc21 | -1.71
58 | CCCCCCSc1cc(-c2nc3cnccn3c2NCc2ccccc2)ccc1OC.O=C(O)C(F)(F)F | 0.374
59 | Cc1cccc(C(=O)Nc2ccc(C(=O)/C=C/c3cccs3)cc2)c1 | 7.48
60 | COC(=O)c1cc(Br)c(=O)n(-c2ccc(OC)cc2)c1 | -0.31
61 | CN(C1CCCCC1)S(=O)(=O)c1cc2c3c(c1)CCN3C(=O)CC2 | -16.2
62 | O=C(c1ccc(N2CCCCCC2)c([N+](=O)[O-])c1)N1CCC2(CC1)OCCO2 | -22
63 | COc1ccccc1NC(=S)NCC1CCCO1 (stereo not drawn) | 8.94
64 | C/C(Cc1ccccc1)=N\NC(=O)CNC(=O)Cc1ccccc1 | 15.2
65 | O=c1[nH]c(CS(=O)(=O)c2ccccc2)nc2ccccc12 | 0.89
66 | CCOC(=O)C1(Cc2cccc(OC)c2)CCCN(C(=O)c2cc(CC(C)C)[nH]n2)C1 (stereo not drawn) | -8.21

Row | Compound | hERG current change (%, negative = inhibition) at 10uM [%]
67 | COc1ccc(/C=C2/SC(=O)N(CCC(=O)Nc3ccc(C)cc3)C2=O)cc1OC | -0.743
68 | CCOC(=O)CC(N)c1cccc([N+](=O)[O-])c1.Cl (stereo not drawn) | 2.9
69 | O=C1c2ccccc2NC(c2ccc(O)cc2)N1c1ccccc1 (stereo not drawn) | -1.54
70 | COc1ccc(N2C(=O)c3ccc(NC(C)=O)cc3C2=O)cc1 | 20.2
71 | Cc1cnc(NC(=O)CSC(=S)N2CCOCC2)s1 | 15.4
72 | CNc1sc(C(=O)c2cccs2)c(N)c1-c1nc2ccccc2s1 | 17.7
73 | Cc1cccc(-n2ccc(=O)c(C(=O)Nc3ccc(S(=O)(=O)Nc4onc(C)c4C)cc3)n2)c1 | 8.19
74 | CC(C)Oc1ccc(CCNC(=O)CC2C(=O)NCCN2C)cc1 (stereo not drawn) | 19.5
75 | O=C(NNC(=O)c1nn(-c2ccc(F)cc2)ccc1=O)c1ccccc1Cl | -5
76 | O=C(Nn1c(-c2ccc(Cl)cc2)nc2ccccc2c1=O)c1cccnc1Cl | 5.79
77 | COc1ccc(C(=O)C2CCCN(C(=O)Cn3nc(C)cc3C)C2)cc1F (stereo not drawn) | -17.4
78 | COC(=O)c1sccc1NC(=S)Nc1ccc(F)cc1F | 10.3
79 | Cc1ccc[n+](CC(=O)c2ccc(NC(=O)c3ccccc3)cc2)c1.[Br-] | 16.8
80 | CCC(=O)NCCc1nc2cc(NC(=O)c3ccccc3Cl)ccc2n1C | 1.55
81 | COc1ccccc1Nc1ccc(N)cc1 | -3.18
82 | COCCC(=O)N1CCC(Oc2ccc(C(=O)NC3CCOC(C)(C)C3)cc2)CC1 (stereo not drawn) | 14.9
83 | COc1cc(Nc2nc(SCC#N)nc3ccccc23)cc(OC)c1OC | -32
84 | COc1ccc(CN(CCCN2CCOCC2)C(=O)Nc2cccc(Cl)c2)cc1OC | -39.3
85 | CCOC(=O)c1sc(NC(=O)CC)c(C#N)c1C | 6.06
86 | O=C(O)CCSc1ncnc2sc(-c3ccccc3)cc12 | -23.6
87 | CCn1c(N2CCN(C(=O)NC3CCCCC3)CC2)nc2ccccc21 | -32.5
